# About 540 (0.36%) of roughly 150,000 compounds showed an effect of 50% or more. The list shows a part of the results.
# Test system: Plasmodium falciparum
# Assay: Primary screen in NF54 nanoGlo assay, in single point, at 2uM, 72h; a lower Z score goes with more inhibition
# Format: functional, Erythrocyte
# Details: timepoint 72 hour
SMILES,% Inhibition [%],Z score
CCn1cc(NC(=O)Cn2cc(-c3cc(C)nc(NC)n3)cn2)nn1,-6,1.04
CNC(=O)NCC(=O)N1CCCCC[C@@H]1CC(C)C,-9,1.58
CCn1nc(C)c(C(=O)N[C@@H]2[C@@H]3CCO[C@@H]3[C@H]2N2CCCC2)c1C,-7,1.32
O=C(c1ccccn1)N1CCN(Cc2ccccn2)[C@@H]2CS(=O)(=O)C[C@@H]21,-10,1.79
C[C@@H](c1cccnc1)N(C)Cc1cnc2cnccn12,-3,0.35
Cc1nc([C@@H]2CCCCN2Cc2nc(C(C)(C)C)co2)no1,2,-0.34
COc1ccc(C=C(C)CN2CCC[C@H](CNC(C)=O)C2)cc1,31,-3.51
C[C@H](Oc1ccc(F)cc1)c1nnc2n1CCOC2,14,-1.75
CC(=O)c1ccc(N2CCN(C(=O)C[C@H]3C(=O)NCCN3Cc3ccoc3)CC2)cc1,1,-0.18
CC(C)=CCN1CCC[C@H](Cn2cncn2)C1,-17,2.17
Cn1cccc1C(=O)C(=O)NCCc1cnn(-c2ccccc2)c1,-9,1.53
O=S(=O)(c1ccccc1)N1CC(c2nc(CCOCC3CC3)no2)C1,-2,0.24
O=C(Oc1ccccc1C(=O)OC1CCCCC1)c1cccnc1,0,-0.05
CC(C)[C@@H]1NC(=O)N(c2ccc(Oc3ccccc3)cc2)C1=O,30,-3.39
COCCn1nnnc1[C@@H]1CN(C(=O)c2cn3ccc(C)cc3n2)CCO1,-8,1.49
Cc1cc(NC(=O)N[C@H]2CCCN(c3ccccc3F)C2)c[nH]c1=O,-1,0.08
Oc1cccc(C2Nc3ccc(Br)cc3C3OCCCC23)c1 (stereo not drawn),-10,1.14
O=C(NCc1cccnc1N1CCOCC1)c1ccc2cccc(Cl)c2n1,4,-0.61
COc1c[nH]c(C(=O)N2CCN(c3ccc(F)cc3)CC2)cc1=O,12,-1.58
C[C@@H](Cc1ccccc1F)N1CCC(=O)N(Cc2ccncc2)CC1,0,-0.01
COc1ccc(NC(=O)N2C3CCC2CC2(CC2)C3)c(Br)c1,14,-1.6

SMILES,% Inhibition [%],Z score
Cn1nccc1[C@@H]1NC(=O)CC[C@H]1NC(=O)c1cncc(Cl)c1,3,-0.42
COc1ccccc1CN1CC(=O)N2Cc3[nH]c4ccccc4c3C[C@H]2C1=O,-8,1.47
COc1cccc(C(=O)N2CCC[C@@](CO)(CCc3ccccc3)C2)c1,-4,0.83
Cc1nc(N2CCN(C(=O)C(C)C)CC2)cc(-n2ccnc2)n1,3,-0.5
Cc1nc(CN2CCC[C@H](Nc3ccc(Cl)cn3)CC2)c2ccccn12,-1,0.18
Cc1ccc(S(=O)(=O)N2c3ccccc3N(C(=O)Nc3ccccc3)[C@@H]2c2ccc(N(C)C)cc2)cc1,30,-3.37
CC1CCCC(C)N1S(=O)(=O)c1ccc(NC(=O)COCC2CC2)cc1 (stereo not drawn),-1,0.24
CC1CC(C#N)(C(=O)NC[C@H](C)Oc2ccc(Cl)cc2)C1 (stereo partly drawn),-11,1.37
O=C(Cn1nnnc1CN1CCCC1)N[C@H](c1ccncc1)c1ccc(F)cc1,-12,1.66
Cc1cccc(OCC(=O)N2CC3(C[C@H](N4CCCCC4)CO3)C2)c1,-8,1.19
O=C(c1ccc(F)cc1)N1CCC(N2CCS(=O)(=O)CC2)CC1,-12,1.04
CC1CCN(Cc2nc(C3CC3)no2)CC1,-7,0.85
CC(C)C[C@H](NC(=O)c1n[nH]c2c1CCC2)c1nnc2ccccn12,6,-0.75
Cc1c(C(=O)N(Cc2ccccc2)C2CC2)cnn1C,-9,1.2
CCC(=O)N(Cc1cc2ccccc2[nH]c1=O)C1CCCCC1,7,-0.78
CN1CC[C@@H]2CN(C(=O)Nc3cccc(Cl)c3Cl)C[C@@H]21,4,-0.67
CCOC(=O)c1ccc(Nc2nc(C(C(F)(F)F)(C(F)(F)F)C(F)(F)F)nc(C(C(F)(F)F)(C(F)(F)F)C(F)(F)F)n2)cc1,-16,2.11
CC(C)N(C(=O)c1n[nH]c2ccc(Cl)cc12)C1CC1,25,-3.12
CCN1CCN(C(=O)c2cc3n(n2)CCN(Cc2c(Cl)cccc2Cl)C3=O)CC1,-9,0.88
Cc1noc(C)c1CN(C)C(=O)NCCc1cc(F)cc2c1OCOC2,-8,1.05
O=C(NCc1ccco1)c1ccc2c(c1)C(=O)N(Cc1ccccc1)C2=O,-13,1.64

SMILES,% Inhibition [%],Z score
O=C(Nc1cnnn1-c1ccccc1)[C@H]1CCCO1,-9,1.06
CC1CCN(C(=O)c2c3c(nc4ccccc24)C(=O)N(C2CCCCC2)C3)CC1,-8,0.88
CC(C)NC[C@H](O)COC1CCC(C(C)(C)C)CC1 (stereo partly drawn),-7,0.93
O=C(CN1CCN(c2ccc(F)c(F)c2)C1=O)N1CCc2ccccc2C1,12,-1.43
O=C(NCCc1ccccc1)c1cc(Cn2cnc3ccccc32)on1,-15,1.97
CCC1CN(C(=O)C(Cc2ccc3c(c2)OCO3)NC(C)=O)CCO1 (stereo not drawn),2,-0.34
CC(C)(C)OC(=O)NC1CCCCCCC1C(N)=O (stereo not drawn),-11,1.44
CC(=O)N[C@H]1C[C@@H](c2cc(F)cc(F)c2)O[C@@H](C(C)(C)CN(C)C)C1,-11,1.37
CC(NCC1(CCO)CCOC1)c1nc2cc(Cl)ccc2n1C (stereo not drawn),-3,0.58
Cc1nccc(C(=O)O[C@@H](C(=O)N2CCCC2)c2ccccc2)n1,-4,0.44
CN(C(=O)c1cc(O)nc2ccccc12)c1nccs1,-9,1.16
O=C(CNC(=O)c1ccncc1)N[C@H]1CCCc2ccccc21,-12,1.58
O=C(C1=Cc2cc(Br)ccc2OC=C1)N1CCOCC1,28,-3.79
O=C(Nc1nc2c(s1)CN(S(=O)(=O)Cc1cccc(F)c1)CC2)c1cccs1,-4,0.63
CC(C)(C)C(=O)/C(=N\OC(=O)Nc1ccc(Cl)cc1)n1cncn1,41,-5.27
Cc1ccc(NC(=O)CCc2nc(-c3cc4ccccc4nc3O)no2)cc1Cl,5,-1
CC1(C(=O)NC[C@H]2Cc3ccccc3CN2)CC=CC1,5,-0.84
CCc1ccccc1NC(=O)c1cn(-c2ncccc2-c2nc(C(C)C)no2)cn1,-11,1.47
COc1ccc2c(c1)CCN(c1cc3nncn3c(C)n1)CC2,3,-0.36
COC1(CNC(C)(C)C(=O)OC(C)(C)C)CCC1,-1,0.18
Cc1nc(NC(=O)N2CC[C@H](CO)C2)ccc1Br,-7,0.69

SMILES,% Inhibition [%],Z score
CN(C(=O)c1cccc2cnccc12)C1CCN(c2cnccn2)CC1,1,-0.2
COc1ccc(N2CCN(C(=O)c3cc(-c4cccc(F)c4)ns3)CC2)cc1,-1,0.18
COC1CC(NC(=O)Cc2cccc(N)c2)C1(C)C (stereo not drawn),-10,1.74
CCOC(=O)CN(C)C1CN(C(=O)c2cc(C)nc3onc(C)c23)C1,3,-0.56
CCN(C(C)=O)c1nc(CN(C)Cc2cccc(F)c2)cs1,-7,0.95
O=C(Nc1ccnn1C1CCN(Cc2ccc3nsnc3c2)CC1)[C@H]1CCOC1,4,-0.5
CC(C)CC(=O)N1C[C@@H](Oc2cccnc2)C[C@H]1C(=O)NC1CC1,-1,0.16
CCN1CCN(c2ncnc3c2sc(=S)n3-c2ccccc2)CC1,-1,0.18
Cc1nnc(NC(=O)N[C@@]2(C)CCOC2)s1,-2,0.29
CCS(=O)(=O)Oc1ccccc1CN(C(=O)CC(C)C)C(C)C,-6,1.24
Cn1c(Cn2cncn2)nnc1C1CCN(C(=O)CC2CCCCC2)CC1,0,-0.07
Cc1ccccc1Nc1nc(N)nc(COC(=O)[C@@H](NC(=O)c2ccccc2)C(C)C)n1,-5,0.41
O=S(=O)(CCN1CCc2cncnc2C1)c1ccccc1,-1,0.15
CCOC(C)c1nccn1CC1CCCO1 (stereo not drawn),-8,1.17
CC1(C)C(=O)N(Cc2ccc(F)cc2)C(=O)N1CCCCOc1ccccc1,10,-1.13
Cc1cc(-c2cccc(C(=O)NCCN3CCCC3)c2)nc(N)n1,2,-0.35
COc1c(C(=O)Nc2ccc(F)cc2)oc2ccc(NC(=O)c3cccc(Cl)c3)cc12,-15,1.77
Cc1cccc2ncn([C@@H](C)Cc3cccnc3)c(=O)c12,-15,2.12
O=C(CCc1nc2cc(Cl)ccc2s1)N1CCN2CCC1C2 (stereo not drawn),1,-0.08
COc1ccc2oc(CN3CCc4ccc(S(C)(=O)=O)cc4CC3)cc2c1,20,-2.5
O=c1[nH]ccc2c1N(S(=O)(=O)c1cnn(C3CCCC3)c1)CCC2,7,-1.05
